Test results from PMC7819943, “Rice protein-binding microarrays: a tool to detect cis-acting elements near promoter regions in rice”.
The list shows a part of the results.

Each sequence was assayed against T1, OsWOX13 (Oryza sativa, UniProt Q5QMM3 1-267) (assay: protein-binding microarray (RPBM); PBS, 2% BSA, 51.3 ng/ul salmon testes DNA, 50 uM zinc acetate, 200 nM TF, 25 C, 1 h; high values mean tight binding). Conditions: protein: recombinant; tags: N-terminal polyhistidine and DsRed monomer fusion (pET32a); label: CyDye5-dUTP incorporated in the synthesized complementary strand; 3' TTTTT single-stranded linker to array surface; dsDNA, one strand shown.
T1 sequence: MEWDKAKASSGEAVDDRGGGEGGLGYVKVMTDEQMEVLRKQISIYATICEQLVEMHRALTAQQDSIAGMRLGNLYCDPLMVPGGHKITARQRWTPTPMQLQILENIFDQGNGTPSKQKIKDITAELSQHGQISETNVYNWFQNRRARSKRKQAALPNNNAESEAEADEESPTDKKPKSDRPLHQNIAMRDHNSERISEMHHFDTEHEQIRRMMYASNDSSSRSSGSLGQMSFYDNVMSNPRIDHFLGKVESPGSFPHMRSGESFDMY
Outline: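 In PBS with 2% BSA, salmon testes DNA and 50 µM zinc acetate, 200 nM protein was incubated on a custom Agilent array at 25 °C for 1 h and then washed off. The array had been made double-stranded by primer extension with Cy5-dUTP and blocked with 2% BSA. The proteins were transcription factors fused N-terminally to polyhistidine and DsRed, expressed in E. coli BL21-CodonPlus and purified on Ni–NTA. The binding signal is per-feature fluorescence intensity (arbitrary units) from an Axon 4000B scanner.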

Row | Sequence | binding signal
1 | AATTTCTATTATTTCCTAATTGTATTTCTATATGGACTCTCGGAGTCACCTAGTGCAG | 3670 fluorescence intensity (a.u.)
2 | TTATAACAATTAATTAAATGTTTCGCGTGTAGTACAATTTCGGAGTCACCTAGTGCAG | 26500 fluorescence intensity (a.u.)
3 | TCCTATTAATTTCTTAAGTCCAAACTTTCTCTACCGTCAGCGGAGTCACCTAGTGCAG | 9410 fluorescence intensity (a.u.)
4 | TGGATGTGATATGATGTGATGGAAAGTTAAAAGTTTAAGGCGGAGTCACCTAGTGCAG | 6010 fluorescence intensity (a.u.)
5 | ATGGATCCAATTAACCCTATTTATATAATGTCAAACGCTTCGGAGTCACCTAGTGCAG | 10200 fluorescence intensity (a.u.)
6 | TATAACATAATTACATAGCAATTGTGCTACAATAACATTTCGGAGTCACCTAGTGCAG | 10900 fluorescence intensity (a.u.)
7 | AATATCTAATTGATGCAATTGAAATTGATGTTGATGCATTCGGAGTCACCTAGTGCAG | 50300 fluorescence intensity (a.u.)
8 | TTGCTGTAGATTTACAAATTTACAATAGCCAAAAGCTGAACGGAGTCACCTAGTGCAG | 3590 fluorescence intensity (a.u.)
9 | GGCTCATTGATAATATACGGATTAGATGGAAAAGAGAAAACGGAGTCACCTAGTGCAG | 3470 fluorescence intensity (a.u.)
10 | GGTAGATTATGGTCAAGATTAGTTGGCCAGCTTTTGGGAACGGAGTCACCTAGTGCAG | 22600 fluorescence intensity (a.u.)
11 | TGCGGCTTTGATTTGCGGGGTTCACACACGAGTAATTGCACGGAGTCACCTAGTGCAG | 3210 fluorescence intensity (a.u.)
12 | TTTTGACAGCCCTACCTCAACCTCAATACCATTGACAGCACGGAGTCACCTAGTGCAG | 4980 fluorescence intensity (a.u.)
13 | CTATATGTTGTCAAGTAGGAGATTGACTTGTTCTATGTAACGGAGTCACCTAGTGCAG | 3400 fluorescence intensity (a.u.)
14 | TTCTATGATTGATTGGTCGATAGGAAGACATATAACAGCGCGGAGTCACCTAGTGCAG | 65500 fluorescence intensity (a.u.)
15 | ACATATATAAGTTGATTGATTTGTTATTATAGACGACGAGCGGAGTCACCTAGTGCAG | 55400 fluorescence intensity (a.u.)
16 | CCGTGACAAGCCGATCACTGCCCCTTCATCTGCGATGCTCCGGAGTCACCTAGTGCAG | 3520 fluorescence intensity (a.u.)
17 | TCTATAAACTTAATCAAATTTAAAGAAATTTGATATATAACGGAGTCACCTAGTGCAG | 4200 fluorescence intensity (a.u.)
18 | GCTGATTGCACCCAAACCGGATCGGCCGCCCACGAAGCTTCGGAGTCACCTAGTGCAG | 22900 fluorescence intensity (a.u.)
19 | CTAGACCTGATTGGAAGAGGAGACATGGGTATATGAGATGCGGAGTCACCTAGTGCAG | 28100 fluorescence intensity (a.u.)
20 | CCCGTGGCTCGACTTGATGGCGTGGAGAATGGACGAGTACCGGAGTCACCTAGTGCAG | 6970 fluorescence intensity (a.u.)
21 | ATCCTTTTCTCCTTTTCTCGCAAAATCTCCAAAACCGCTTCGGAGTCACCTAGTGCAG | 65500 fluorescence intensity (a.u.)

Row | Sequence | binding signal
22 | TTCCAACCAATCATAACCCAATAAGAGCAAAATGGAAAACCGGAGTCACCTAGTGCAG | 4060 fluorescence intensity (a.u.)
23 | CAAGGAATTTAATTTTGACATGGAACAGTTCGATTCCCGCCGGAGTCACCTAGTGCAG | 10600 fluorescence intensity (a.u.)
24 | CGCCACATGACAATGACTGACAGGCTGGCCCCACGTCCTACGGAGTCACCTAGTGCAG | 8550 fluorescence intensity (a.u.)
25 | GCCAAATTGATGTAGCAAACAATGTTTCGTCATATTAGTCCGGAGTCACCTAGTGCAG | 45600 fluorescence intensity (a.u.)
26 | GCTTCCAATCAACCTCCTCTTCCTTCCTAAGCTACGCCAACGGAGTCACCTAGTGCAG | 14300 fluorescence intensity (a.u.)
27 | TCCACTCAATCTTCTGTTTCTATTTCCCCGTAATCGAAGCCGGAGTCACCTAGTGCAG | 4630 fluorescence intensity (a.u.)
28 | TCTAATTAATCCATCATTAGCAAATGTTTACTGTAGCACTCGGAGTCACCTAGTGCAG | 30900 fluorescence intensity (a.u.)
29 | TAGTAGTTAATAATTAATTAATTATGCTCTAATGAACTTTCGGAGTCACCTAGTGCAG | 44100 fluorescence intensity (a.u.)
30 | GCAACTTAGGGTCAACCAATCAGCGGTTATAGTAACTGAACGGAGTCACCTAGTGCAG | 3390 fluorescence intensity (a.u.)
31 | GCTGCAATCACAGAAACCTCAGCTCACTCTGGAAGAAGCCCGGAGTCACCTAGTGCAG | 5420 fluorescence intensity (a.u.)
32 | AGCTAATGTATAGTGATGGCGATAAAGCTTTTGGAACATCCGGAGTCACCTAGTGCAG | 6140 fluorescence intensity (a.u.)
33 | GCTTAATGGAATAATGGAAGCACGCGGCAAAGACGATGGTCGGAGTCACCTAGTGCAG | 22900 fluorescence intensity (a.u.)
34 | ACAAAATCTGATAATTGCAGCCTCCCAAGTCCCAACCTTCCGGAGTCACCTAGTGCAG | 5520 fluorescence intensity (a.u.)
35 | ATCACATATTCTAATTGATCCTGTTCCTGATCATGTACCGCGGAGTCACCTAGTGCAG | 12600 fluorescence intensity (a.u.)
36 | AACAGCAGCAAATTGATGGAAGCCCCAGGTTATTGGCTGGCGGAGTCACCTAGTGCAG | 14900 fluorescence intensity (a.u.)
37 | TTCCTGATAGATGGTGTCAGGCATTTCACTGAATGATCTACGGAGTCACCTAGTGCAG | 18600 fluorescence intensity (a.u.)
38 | TCTTTTATAATCTTTAACTGATTAAATCAAACGATTCTAACGGAGTCACCTAGTGCAG | 4540 fluorescence intensity (a.u.)
39 | AATTTGATTTGATTACATTACACATTTATACATCTCTCATCGGAGTCACCTAGTGCAG | 42200 fluorescence intensity (a.u.)
40 | ATATAAGTGATTTTGGTTGGATGTGACATATCCTAGTACACGGAGTCACCTAGTGCAG | 5120 fluorescence intensity (a.u.)
41 | GGTAATGACGAAATTTGACCAATTTTGGCATTAATATATTCGGAGTCACCTAGTGCAG | 13100 fluorescence intensity (a.u.)
42 | ATTAATTTCTAGATGTAATCTTATCTTCTATATATGCATACGGAGTCACCTAGTGCAG | 11000 fluorescence intensity (a.u.)
